Data: PubChem BioAssay AID602292 (National Center for Advancing Translational Sciences (NCATS), 2012)
Out of some 1,300 compounds screened, about 380 (29%) were called active. This list was built around the results that the source calls inconclusive (neither active nor inactive); the mix of calls is not that of the screen. Calls come from the whole dose curve; as a rule, active = well fitted inhibition curve with a large enough effect; inconclusive = small, poorly fitted or top-dose-only effect; inactive = flat fitted curve, though single readings scatter. Potencies of inconclusive entries are left out as doubtful fits.

These compounds were tested against Thyrotropin receptor (Homo sapiens) (UniProt P16473) (assay: qHTS for antagonists of the Thyroid Stimulation Hormone Receptor: Hit Validation in Primary Screen). Settings: TSHR-expressing cells, cAMP antagonist mode; activity change, negative = inhibition: at the top concentration.
Outline: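 TSHR-expressing cells were pretreated with compound, then stimulated with TSH at EC80 (4nM final) for 2 hours at 37 deg C. Cellular cAMP measured by competitive HTRF (anti-cAMP cryptate, cAMP-d2) after 30 min at room temperature.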
% is set by controls: 0 for no effect and ±100 for the full control effect; potency is the fitted concentration of half-maximal effect; tags give direction and shape of the fitted curve.
Note: nearly all actives have a fitted effect of over 80% in size.
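Throughout, for activity change, negative = inhibition: cAMP by competitive HTRF where cellular cAMP lowers the 665 nm FRET signal.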

Chain of UniProt P16473 (P16473 whole entry, looked up): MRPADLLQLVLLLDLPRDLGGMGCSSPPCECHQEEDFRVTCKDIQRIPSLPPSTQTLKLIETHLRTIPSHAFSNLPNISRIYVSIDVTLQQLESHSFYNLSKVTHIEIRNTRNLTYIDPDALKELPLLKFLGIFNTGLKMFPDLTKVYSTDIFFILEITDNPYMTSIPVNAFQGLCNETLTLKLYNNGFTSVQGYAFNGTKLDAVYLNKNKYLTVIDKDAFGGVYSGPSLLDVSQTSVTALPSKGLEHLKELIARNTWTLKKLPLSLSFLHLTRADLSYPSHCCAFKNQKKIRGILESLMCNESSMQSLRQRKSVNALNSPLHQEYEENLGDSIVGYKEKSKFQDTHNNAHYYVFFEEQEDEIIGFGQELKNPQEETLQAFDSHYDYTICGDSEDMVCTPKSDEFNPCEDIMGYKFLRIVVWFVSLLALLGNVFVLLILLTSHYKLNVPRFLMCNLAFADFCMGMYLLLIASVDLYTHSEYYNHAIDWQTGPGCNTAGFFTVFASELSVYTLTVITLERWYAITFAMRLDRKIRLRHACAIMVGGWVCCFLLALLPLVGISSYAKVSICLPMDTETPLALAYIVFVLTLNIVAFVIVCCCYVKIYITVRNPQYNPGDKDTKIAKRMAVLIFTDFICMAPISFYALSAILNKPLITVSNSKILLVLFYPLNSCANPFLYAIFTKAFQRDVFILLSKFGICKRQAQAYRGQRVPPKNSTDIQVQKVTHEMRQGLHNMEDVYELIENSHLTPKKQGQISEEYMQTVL

SMILES	Potency	activity change, negative = inhibition
O=C(Nc1ccc(Cl)cc1)c1cc2c(cc1O)[nH]c1ccccc12	active: 3.01 µM	
CCCCOc1ncnc2c1[nH]c1ccccc12	inconclusive [inhibitor, partial curve]	
CCOc1ccc(CN(C)c2ccc(S(=O)(=O)N3CCN(C)CC3)cc2[N+](=O)[O-])cc1OC	inconclusive [inhibitor, partial curve, poor fit]	
O=C(c1ccc(Cl)c(S(=O)(=O)N2CCCCC2)c1)N1CCCC1		inactive: -7.26%
COc1cc(C(C)=O)ccc1OCC(=O)Nc1ccc(Cl)c(S(=O)(=O)N2CCOCC2)c1	inconclusive [inhibitor, partial curve]	
CCCCn1c(-c2c(Cl)c(C)nn2C)n[nH]c1=S	inconclusive [inhibitor, partial curve]	
N#CC(C#N)=NNc1ccc(S(=O)(=O)N2CCCCC2)cc1	active: 3.01 µM	
Cc1cc2nc(-c3ccc(NC(=O)c4cccnc4)cc3)oc2cc1C	inconclusive [inhibitor, partial curve, poor fit]	
COc1ccc(-c2nnc(NC(=O)c3ccc(S(=O)(=O)N4CCCc5ccccc54)cc3)o2)cc1	inconclusive [inhibitor, partial curve]	
CCN(CC)S(=O)(=O)c1cc(NC(=O)C2CCN(c3ncnc4sc(C)c(C)c34)CC2)ccc1Cl	inconclusive [inhibitor, partial curve]	
C/C(=N/OCO/N=C(/C)c1ccc(F)cc1)c1ccc(F)cc1	inconclusive [inhibitor, partial curve, poor fit]	
Clc1c(CSc2nc3ccccc3o2)nc2ccccn12	active: 23.9 µM	
O=C(O)c1ccc(NC2=C/C(=N/S(=O)(=O)c3ccccc3)c3ccccc3C2=O)cc1	active: 21.3 µM	
CCOC(=O)N1CCN(C(=O)c2ccc3c(c2)N=C(CC)c2cc(C)ccc2S3)CC1	inconclusive [inhibitor, partial curve, poor fit]	
CCN(CC)S(=O)(=O)c1cccc(NC(=O)CCSc2ccc(Cl)cc2)c1	active: 30.1 µM	
CCOC(=O)Cn1c(=NC(=O)CSC(C)=O)sc2ccccc21		inactive: -23.8%
COc1cc(OC)cc(-c2cc3cc4c(cc3cn2)OCO4)c1	inconclusive [inhibitor, partial curve]	
CC(C)c1ccccc1OCCNC(=O)c1cccnc1	inconclusive [inhibitor, partial curve]	
CC(C)(C)OC(=O)N[C@@H](Cc1ccccc1)c1nnc(S(=O)(=O)Cc2cccc(F)c2)o1	inconclusive [inhibitor, partial curve]	

SMILES	Potency	activity change, negative = inhibition
COc1ccccc1NS(=O)(=O)c1cccc(NC(=O)c2ccc3ccccc3n2)c1	inconclusive [inhibitor, partial curve]	
CCOc1ccc(Nc2nc(Cc3nnc(SCC(=O)c4ccc(C)cc4)o3)cs2)cc1	inconclusive [inhibitor, partial curve]	
CCOc1ccccc1NC(=O)C1(S(=O)(=O)c2ccc(Cl)cc2)CC1		inactive: -5.39%
C=CCNc1ncnc2ccc(Br)cc12	inconclusive [inhibitor, partial curve, poor fit]	
CCOC(=O)c1ccc(NC(=O)c2nc(S(=O)(=O)Cc3ccccc3)ncc2Cl)cc1	inconclusive [inhibitor, partial curve]	
COc1ccc(/C=C2/SC(=S)NC2=O)cc1OCc1ccccc1	inconclusive [inhibitor, partial curve]	
CC(C)NC(=O)COc1coc(CN2CCN(c3ccccc3F)CC2)cc1=O		inactive: -7.58%
O=C(Nc1ccn(Cc2ccccc2F)n1)c1ccc(COc2ccccc2Cl)cc1	inconclusive [inhibitor, partial curve]	
COC(=O)c1c(-c2ccc(SC)cc2)sc2ccccc12	inconclusive [inhibitor, partial curve]	
COC(=O)c1c(NC(NC(=O)CC(C)C)C(Cl)(Cl)Cl)sc2c1CCC2 (configuration not stated)	inconclusive [inhibitor, partial curve]	
C=C(C)CNc1cc(S(=O)(=O)N2CCOCC2)ccc1Oc1ccccc1	inconclusive [inhibitor, partial curve]	
O=c1c2nncn2c2cccnc2n1CCNc1ncc(C(F)(F)F)cc1Cl		inactive: -4.18%
COc1cccc(CN(C)C(=O)CNC(=O)c2ccc(-c3ccccc3)cc2)c1OC	active: 26.9 µM	
CCCC(=O)OCCNc1cc(Sc2nc3ccccc3[nH]2)c2nonc2c1[N+](=O)[O-]	active: 23.9 µM	
O=S(=O)(/N=C(/Nc1cccc2ccccc12)c1ccccc1)c1cccs1	inconclusive [inhibitor, partial curve, poor fit]	
C(=N\N1CCN(Cc2cccc3ccccc23)CC1)/c1cccnc1		inactive: -9.51%
O=C(Nc1nnc(S(=O)(=O)N2CCCCCC2)s1)c1cccc(Br)c1	inconclusive [inhibitor, partial curve]	
Cc1ccc(C)c(N2CCN(C(=O)CCCCCn3c(=S)[nH]c4ccc(N5CCOCC5)cc4c3=O)CC2)c1	inconclusive [inhibitor, partial curve]	
COc1ccc(CNC(=O)C(c2ccco2)N(C(=O)c2snc(C(N)=O)c2N)c2cccc(OC)c2)cc1 (configuration not stated)	inconclusive [inhibitor, partial curve, poor fit]	

SMILES	Potency	activity change, negative = inhibition
CCN(CC)c1ccc(C(=O)OCC(=O)N2CCCC2)cc1		inactive: -7.98%
O=c1[nH]c(-c2ccccc2F)nc2c1sc(=S)n2Cc1ccccc1	inconclusive [inhibitor, partial curve]	
Cc1ccc(S(=O)(=O)Nc2ccccc2N2CCCCC2)cc1	inconclusive [inhibitor, partial curve]	
CN(C)S(=O)(=O)c1ccc(C(=O)Nc2nc(-c3cccs3)cs2)cc1	active: 19 µM	
O=C1CCCC2=C1C(c1ccsc1)CC(=O)N2c1nnc(SCc2ccccc2)s1 (configuration not stated)	inconclusive [inhibitor, partial curve, poor fit]	
COc1c(/C=C2\SC(=Nc3ccccc3Cl)NC2=O)cccc1[N+](=O)[O-]	inconclusive [inhibitor, partial curve]	
Cc1ccccc1N/C(SCc1ccc(Cl)cc1)=C(/C#N)C(=O)NCc1ccco1	inconclusive [inhibitor, partial curve, poor fit]	
CN(Cc1ccccc1)S(=O)(=O)c1ccc(OCC(=O)NCc2ccccn2)cc1		inactive: -6.28%
C=CCN1C(=O)C(Cc2ccc(OC)cc2)S/C1=N/N=C/c1ccco1 (configuration not stated)	inconclusive [inhibitor, partial curve, poor fit]	
C=C(C)c1cccc(C(C)(C)NC(=O)N(Cc2ccccc2)Cc2ccco2)c1	inconclusive [inhibitor, partial curve, poor fit]	
Cc1nn(-c2ccccc2)c(Cl)c1CN(C(=O)CCl)c1ccc(Cl)cc1	inconclusive [inhibitor, partial curve]	
COC(=O)c1ccc(-c2noc(CN(C)CCC3CCCCO3)n2)cc1 (configuration not stated)	inconclusive [inhibitor, partial curve, poor fit]	
O=C(/C=C/c1ccc(OCCCF)cc1)Nc1ccnc(-c2ccncc2)n1		inactive: -6.83%
COc1ccc(OC)c(CCNC(=O)Cn2nc(C)c3c(C)n(-c4ccc(C)cc4)nc3c2=O)c1	inconclusive [inhibitor, partial curve]	
COc1ccc2cc(/C=C3\SC(=S)NC3=O)c(N3CCOCC3)nc2c1	active: 3.38 µM	
O=C1S/C(=C\c2ccc(O)c([N+](=O)[O-])c2)C(=O)N1c1ccccc1Cl	active: 9.53 µM	
O=S(=O)(Nc1cccnc1)c1ccc(C2CCCCC2)cc1	inconclusive [inhibitor, partial curve]	
Cc1csc(NC(=O)c2cc3c(C)nn(Cc4ccccc4Cl)c3s2)n1	inconclusive [inhibitor, partial curve, poor fit]	
Cc1ccc(NC(=O)CSc2nn(-c3ccccc3)c(=S)s2)cc1S(=O)(=O)N(C)C	inconclusive [inhibitor, partial curve]	
